Broadly, the % Inhibition is the drop in the measured response relative to a control, in per cent.

Consider 43 compounds from ChEMBL document CHEMBL4888484, “Replenishing the malaria drug discovery pipeline: Screening and hit evaluation of the MMV Hit Generation Library 1 (HGL1) against asexual blood stage Plasmodium falciparum ,using a nano luciferase reporter read-out” (2022).

In all, about 150,000 compounds went through this assay and about 540 (0.36%) showed an effect of 50% or more. This is one part of the list.

The assay deals with Plasmodium falciparum. Kind of assay: Primary screen in NF54 nanoGlo assay, in single point, at 2uM, 72h; a lower Z score goes with more inhibition. Format: functional, Erythrocyte. The following applies: timepoint 72 hour.
As to `Cc1cc(C)n(CCC(=O)N2CCC[C@H]2C(F)(F)F)c(=O)n1`, the “% Inhibition” value is -3% and the Z score stood at 0.39.
The like results for `CC(C)N1C[C@@H]2C[C@H]1C(=O)NC[C@H]1O[C@H](CCOc3cc(-c4cnn(C)c4)ccc3C(=O)N2)CC[C@@H]1O` were, in that order, 33% and -3.7.
Taken in the same sequence, the figures for `COc1cccc(CNC2CC3CCC2C3)c1OC` (stereo unspecified) were -11% and 2.11.
Turning to `COc1ccc(CNC(=O)CCN2CCCCCCC2)cc1OC`, the “% Inhibition” value is listed as -6% and the Z score was determined as 0.79.
The like results for `C[C@H](NC1(CO)CC1)c1ccc(Br)cc1F` were, in that order, 0% and 0.05.
For the compound `CCCN(C(=O)NCc1cccnc1)C1C2CCOC2C1(C)C` (stereo unspecified), the “% Inhibition” value was -2% and the Z score is reported as 0.17.
The like results for `Cc1cccnc1[C@@H](NS(=O)(=O)N(C)C)C1CC1` were, in that order, -17% and 2.59.
In the case of `COC(C)(C)C(=O)N1CCC[C@H](c2[nH]ncc2-c2ccc(C)cc2)C1`, the “% Inhibition” value is listed as -8% and the Z score was 1.09.
As for `CC[C@@H](C(=O)N1CC(Oc2ccccc2C)C1)N1CCCC1`, the “% Inhibition” value is 5% and the Z score is -0.96.
The like results for `CCNC(=O)c1cccnc1N(C)CCn1ccnc1C` were, in that order, -4% and 0.54.
Taken in the same sequence, the figures for `Cc1noc(CNC(=O)CC2CCCC2)n1` were -5% and 0.91.
On to `CCOc1ccccc1OC/C=C/CN1CCNCC1`, for which the “% Inhibition” value is -13% and the Z score was 1.44.
For `Cc1nc([C@H](C)NC(=O)CCCn2cnnn2)cs1`, the “% Inhibition” value is given as -5% and the Z score amounted to 0.87.
The like results for `CN(C)c1ccc(-n2nc3ccc(NC(=O)c4cccc5ccccc45)cc3n2)cc1` were, in that order, -14% and 1.61.
In the case of `O=C(Nc1cccc(F)c1)N1CCN(c2nccs2)CC1`, the “% Inhibition” value is listed as -3% and the Z score was found to be 0.46.
For the compound `Cc1cc(C)c(NC(=O)CN(C)C(C)C(=O)NCC2CCCO2)c(C)c1` (stereo unspecified), the “% Inhibition” value is on record as -7% and the Z score came to 1.11.
In the case of `COc1nccnc1N1CCN2C(=O)OC[C@H]2C1`, the “% Inhibition” value was -2% and the Z score was found to be 0.39.
Taken in the same sequence, the figures for `CN1CCCN(c2ncnc3c2CCN(C(=O)[C@H]2CCOC2)CC3)CC1` were -12% and 2.44.
The like results for `COCCn1cnnc1CNC(=O)Cc1ccc2[nH]c(C)nc2c1` were, in that order, -12% and 2.22.
The like results for `CCCn1cc(Nc2cc(C(=O)OC)nc(C)n2)cn1` were, in that order, 0% and 0.
For `FC(F)(F)c1cc(-c2ccco2)nc(N(C2CCCCC2)C2CCCCC2)n1`, the “% Inhibition” value was -10% and the Z score was determined as 1.13.
`CC1CN(Cc2ccccc2)CC(C)C1NC(=O)Nc1ccc(F)cn1` (stereo unspecified): the “% Inhibition” value was -6% and the Z score is 1.09.
Taken in the same sequence, the figures for `CCCn1c(=O)sc2cc(NC(=O)c3ccccc3OC)ccc21` were -2% and 0.3.
The like results for `Cc1ccc(C(=O)NCc2ccc3c(c2)OCO3)c(=O)[nH]1` were, in that order, -2% and 0.29.
With `CS(=O)(=O)C[C@H]1CCCN(Cc2c(Cl)cncc2Cl)C1`, the “% Inhibition” value is recorded as -11% and the Z score is listed as 1.72.
Taken in the same sequence, the figures for `O=C(c1cscn1)N1CCC(C2CC2)CC1` were -2% and 0.26.
The like results for `CC(=O)N1CCN(C(=O)Nc2cc(-c3ccccc3C)nn2C)CC1` were, in that order, 1% and -0.18.
Taken in the same sequence, the figures for `COCCNC(=NC1CC1)NCc1ccccc1` were 0% and 0.06.
On to `Cc1ccccc1S(=O)(=O)N(c1ccc(F)cc1)C1CCN(Cc2cccc(Oc3ccccc3)c2)CC1`, for which the “% Inhibition” value is listed as -4% and the Z score was 0.56.
The like results for `Cc1cc(F)ccc1Cc1noc([C@@H](c2cccnc2)N(C)C)n1` were, in that order, 0% and 0.
For the compound `CCC[C@@H](CNC(=O)Cc1ccc(CO)cc1)N(C)C`, the “% Inhibition” value was -10% and the Z score is 1.05.
Taken in the same sequence, the figures for `CCOc1cccc(CNCCNc2ccccc2)c1` were -2% and 0.19.
Consider `O=C(Cn1ccc(=O)c2sccc21)NCC1CCC1`, for which the “% Inhibition” value is -12% and the Z score is given as 2.13.
The like results for `O=C(c1ccncc1)N1CCC2(CC1)C[C@@H](Cc1cccc(F)c1)CCO2` were, in that order, -14% and 1.83.
The like results for `COc1cccc(OC)c1C(=O)N(Cc1cccc(OS(=O)(=O)c2ccc(F)cc2)c1)C(C)C` were, in that order, 4% and -0.58.
The like results for `N#Cc1c(F)cccc1NCc1ccc(N2CCNC(=O)C2)cc1` were, in that order, -17% and 1.87.
Take `COc1ccc(-n2nc(C)c3c2NC(=O)C[C@@H]3c2cccc(OC)c2OCc2ccccc2F)cc1`: the “% Inhibition” value was -9% and the Z score turned out to be 0.92.
The like results for `COc1cc(NC(=O)c2oc(C)nc2C)ncn1` were, in that order, 21% and -2.37.
Taken in the same sequence, the figures for `Cc1noc(C)c1CCC(=O)N(C[C@H]1CCCN1CC1CCCCC1)C(=O)CCc1c(C)noc1C` were -5% and 0.99.
Taken in the same sequence, the figures for `CC[C@H](NC(=O)c1ccccc1)C(=O)NCc1cccc(CO)n1` were -1% and 0.16.
With `COc1ccc(C(C)CN2CCOC3CCC(OC)CC32)cc1` (stereo unspecified), the “% Inhibition” value was found to be 1% and the Z score is reported as -0.12.
The like results for `Cc1ccc2c(NC[C@@](C)(O)CCCO)ccnc2c1C` were, in that order, 8% and -1.38.
For `O=C(O)[C@H](Cc1ccncc1)c1ccc(Cl)cc1`, the “% Inhibition” value was -3% and the Z score was 0.38.
